{
  "source": "ChEMBL document CHEMBL4888484",
  "about": "“Replenishing the malaria drug discovery pipeline: Screening and hit evaluation of the MMV Hit Generation Library 1 (HGL1) against asexual blood stage Plasmodium falciparum ,using a nano luciferase reporter read-out” (2022)",
  "note": "The campaign covered roughly 150,000 compounds. About 540 (0.36%) showed an effect of 50% or more. This is one part of the list.",
  "data": [
    {"test_system": "Plasmodium falciparum", "test": "Primary screen in NF54 nanoGlo assay, in single point, at 2uM, 72h; a lower Z score goes with more inhibition", "format": "functional, Erythrocyte", "settings": "timepoint 72 hour", "units": {"% Inhibition": "%"}, "values": [
      {"smiles": "CC(C)(C)OC(=O)N1CCC(Cn2nccc2N)CC1", "% Inhibition": 30, "Z score": -4.31},
      {"smiles": "Cc1csc(N(C)C(=O)c2ccc(OC3CCOCC3)cc2)n1", "% Inhibition": -11, "Z score": 1.75},
      {"smiles": "CCc1nc2c(c(NCCCc3c(C)noc3C)n1)CCNCC2", "% Inhibition": -1, "Z score": 0.21},
      {"smiles": "Cc1ccc(-c2nnc3ccc4nnc(C)n4n23)c(C)c1F", "% Inhibition": 1, "Z score": -0.12},
      {"smiles": "Cc1ccc(O[C@H]2CCOC[C@H]2NC(=O)CCc2c(C)noc2C)cn1", "% Inhibition": 6, "Z score": -0.82},
      {"smiles": "O=C(CCc1nc(CS(=O)(=O)c2ccccc2)no1)NC1CCCCC1", "% Inhibition": 0, "Z score": -0.06},
      {"smiles": "O=C(c1cc(OCc2ccccc2)no1)N1CCOCC1", "% Inhibition": -9, "Z score": 1.71},
      {"smiles": "CS(=O)(=O)N1CCC[C@H]1c1noc(CCC(=O)NCc2cccnc2)n1", "% Inhibition": -9, "Z score": 1.06},
      {"smiles": "O=c1c2ccccc2sn1-c1cccc(S(=O)(=O)N2CCCCCC2)c1", "% Inhibition": -41, "Z score": 4.08},
      {"smiles": "Cn1nccc1CN1CCN(CC(=O)NC2(C#N)CCCCC2)CC1", "% Inhibition": 0, "Z score": -0.02},
      {"smiles": "O=C(c1cccnc1)N(CC1CCN(C2Cc3ccccc3C2)CC1)C[C@H]1CCCO1", "% Inhibition": -1, "Z score": 0.18},
      {"smiles": "COc1ccc(CN(Cc2ccncc2)CC2CCN(C3CCN(C)CC3)CC2)c(F)c1", "% Inhibition": 88, "Z score": -10.13},
      {"smiles": "CC(C)c1cc(C(=O)N2CCC3(CC2)Cc2cn(nn2)CCCOc2ccc(cc2)CCNC3=O)on1", "% Inhibition": -6, "Z score": 1.18},
      {"smiles": "O=C(Nc1ccccc1)c1ccc(Oc2ccc(S(=O)(=O)N3CCOCC3)cc2S(=O)(=O)N2CCOCC2)cc1", "% Inhibition": 33, "Z score": -3.77},
      {"smiles": "O=C(COc1ccc2c(c1)N=C(O)CC2)N1CCO[C@H](c2ccccc2)C1", "% Inhibition": -19, "Z score": 2.78},
      {"smiles": "CC(=O)N[C@H]1C[C@H]2CN(S(=O)(=O)c3ccccc3)CC(=O)N2C1", "% Inhibition": -10, "Z score": 1.36},
      {"smiles": "O=C(OCc1ccccc1F)[C@@H]1CCCN1C1CCCC1", "% Inhibition": -4, "Z score": 0.48},
      {"smiles": "Cc1cc(C)c2c(=O)n(CC(=O)NC3CCCCC3)c(=O)n(-c3ccccc3)c2n1", "% Inhibition": -11, "Z score": 1.38},
      {"smiles": "CCOc1cc(C(=O)N[C@H]2CCS(=O)(=O)C2)cc2occc12", "% Inhibition": 43, "Z score": -5.75},
      {"smiles": "CCC(=O)OC1(C#CCOc2ccc(OC)cc2)CCN(C)CC1", "% Inhibition": 37, "Z score": -4.15},
      {"smiles": "COc1ccc(S(=O)(=O)n2nc(Nc3ccc(Cl)cc3)cc2Nc2ccc(Cl)cc2)cc1", "% Inhibition": 2, "Z score": -0.34},
      {"smiles": "Cc1ccc2nc(NC(=O)CCC(=O)c3ccc4c(c3)OCCO4)sc2c1", "% Inhibition": -4, "Z score": 0.74},
      {"smiles": "CC(C)N(C)C(=O)NC[C@H]1COC2(CCCCCC2)O1", "% Inhibition": -8, "Z score": 1.01},
      {"smiles": "Cc1nc(C)c(C(=O)N2CCC([C@]3(c4cccnc4)NC(=O)N(Cc4ccsc4)C3=O)CC2)s1", "% Inhibition": 6, "Z score": -0.98},
      {"smiles": "COc1ccccc1CNC(=O)CN(Cc1nccn1C)C1CC1", "% Inhibition": 1, "Z score": -0.25},
      {"smiles": "O=C(Nc1cccnc1)[C@H]1CC(=O)N(Cc2cccc(C(F)(F)F)c2)C1", "% Inhibition": 2, "Z score": -0.16},
      {"smiles": "CCc1ccccc1NC(=O)C1CCN(c2nnc(C)c3c(C)n(-c4ccc(Cl)cc4)nc23)CC1", "% Inhibition": 17, "Z score": -1.98},
      {"smiles": "O=C(CCN1CCOC1=O)Nc1nc2cc(F)c(F)cc2s1", "% Inhibition": 1, "Z score": -0.13},
      {"smiles": "C/C=C(\\C)CN1CCC2(CC1)c1ccccc1[C@@H](NC(=O)C(C)C)[C@@H]2OCCOC", "% Inhibition": -12, "Z score": 1.4},
      {"smiles": "CC1CCC2(CCN(S(=O)(=O)c3ccc4c(c3)CCCC4=O)C2)C1", "note": "(stereo unspecified)", "% Inhibition": -11, "Z score": 1.41},
      {"smiles": "O=C1C[C@@H](c2ccccc2)N(S(=O)(=O)c2ccccc2)CCCCCN1", "% Inhibition": -7, "Z score": 0.94},
      {"smiles": "CN1C[C@@H](C(=O)NCC2(N3CCOCC3)CCCCC2)CC1=O", "% Inhibition": 2, "Z score": -0.3},
      {"smiles": "Cc1ccccc1[C@@]1(CC(=O)NCc2cncn2C2CC2)CCOC(C)(C)C1", "% Inhibition": -16, "Z score": 1.7},
      {"smiles": "O=S(=O)(c1ccccc1F)N1CCCCC[C@H]1c1ccccc1Cl", "% Inhibition": -20, "Z score": 2.71},
      {"smiles": "c1cc(N[C@@H]2[C@@H]3CCO[C@@H]3[C@@H]2C2CCCC2)ccn1", "% Inhibition": -12, "Z score": 1.08},
      {"smiles": "CC(C)C(=O)Nc1nc2nccnc2c(=O)[nH]1", "% Inhibition": -7, "Z score": 0.78},
      {"smiles": "O=C(N1CCC[C@@]2(CCS(=O)(=O)C2)C1)C1(O)CCCC1", "% Inhibition": -3, "Z score": 0.31},
      {"smiles": "O=C(Nc1cc(S(=O)(=O)N2CCOCC2)ccc1Oc1ccc(F)cc1)C1CCCCC1", "% Inhibition": 13, "Z score": -1.5},
      {"smiles": "Cn1cc(C(=O)C(C#N)C(=O)NCC2CCCO2)c2ccccc21", "note": "(stereo unspecified)", "% Inhibition": -8, "Z score": 1.21},
      {"smiles": "O=C(c1c[nH]c2cc(F)ccc12)N1C[C@H]2CCS(=O)(=O)[C@H]2C1", "% Inhibition": -14, "Z score": 1.85},
      {"smiles": "CCN(Cc1nnsc1Cl)[C@H]1CCN(c2ccccc2)C1=O", "% Inhibition": 0, "Z score": -0.03},
      {"smiles": "CN(C(=O)Cc1cc(Br)ccc1F)c1nncn1C", "% Inhibition": 37, "Z score": -5.37},
      {"smiles": "Cc1ccc(NC(=O)c2nc(-c3cn(-c4ccc(C)cc4)nn3)no2)cc1", "% Inhibition": -10, "Z score": 2.02},
      {"smiles": "Fc1cc(Br)ccc1OCc1nnc(C2CC2)o1", "% Inhibition": -9, "Z score": 1.04},
      {"smiles": "CCCCc1nc(CN2CCC[C@H]2C(=O)NC)no1", "% Inhibition": -4, "Z score": 0.55},
      {"smiles": "C=C(C)COc1c(OC)cccc1[C@H]1CC(=O)NCc2nc(N)sc21", "% Inhibition": -4, "Z score": 0.57},
      {"smiles": "CC(C)CCN1CCC[C@@H]1Cn1cncn1", "% Inhibition": -2, "Z score": 0.24},
      {"smiles": "Cc1ncccc1C(=O)N(C)C[C@@H]1CC(F)(F)CN1C1CN(C)C1", "% Inhibition": -6, "Z score": 1.06},
      {"smiles": "COc1ccc(-c2nc(NCc3nnc4ccccn34)[nH]c(=O)c2C#N)cc1", "% Inhibition": 10, "Z score": -1.91},
      {"smiles": "CCN1C(=O)C[C@H](Nc2ccc3c(c2)OCCO3)C1=O", "% Inhibition": -7, "Z score": 1.24},
      {"smiles": "C[C@@]1(C(=O)NCc2cccc(Br)c2)Oc2cccnc2NC1=O", "% Inhibition": -5, "Z score": 0.9},
      {"smiles": "CO[C@@H](C(=O)N1CCc2cn[nH]c2C1)c1ccccc1C(F)(F)F", "% Inhibition": 3, "Z score": -0.6},
      {"smiles": "COc1cc(C(=O)NC2CCCCC2)ccc1OCc1ccc(Cl)cc1Cl", "% Inhibition": 1, "Z score": -0.19},
      {"smiles": "COc1ccc(CNC(=O)N2CCC(n3ccnn3)CC2)cc1OC", "% Inhibition": -16, "Z score": 2.44},
      {"smiles": "Cc1ccc(CN2CCN(C(=O)C[C@]3(c4ccccc4F)CC(=O)N(C)C3=O)CC2=O)cc1", "% Inhibition": 9, "Z score": -1.14},
      {"smiles": "COc1cc2c(cc1CN1CC[C@H](CO)[C@@H](O)C1)OCO2", "% Inhibition": 2, "Z score": -0.18},
      {"smiles": "NC(=O)[C@H]1CCCN1C(=O)C1CCN(c2cc(Cl)ccc2Cl)C1=O", "note": "(stereo partly specified)", "% Inhibition": -10, "Z score": 1.9},
      {"smiles": "COCCN1CC2(CCC1=O)CCN(C(=O)c1cnc(C)cn1)CC2", "% Inhibition": -1, "Z score": 0.2},
      {"smiles": "CCn1cncc1Cn1cnc(-c2ccccc2)c1-c1nc2ccccc2n1C", "% Inhibition": 4, "Z score": -0.48},
      {"smiles": "CCC(=O)NCC(=O)N1CCC[C@H](C)c2ccccc21", "% Inhibition": -4, "Z score": 0.4},
      {"smiles": "Cc1cc(C(=O)NCc2ccco2)c2c(-c3ccccc3F)noc2n1", "% Inhibition": 25, "Z score": -2.86},
      {"smiles": "CN(C)c1noc(CN(CCC(N)=O)c2ccc(F)cc2)n1", "% Inhibition": -7, "Z score": 0.67},
      {"smiles": "CC(=O)N(c1nc(CN[C@H]2CCCc3nn(C)cc32)cs1)C1CC1", "% Inhibition": -5, "Z score": 0.91},
      {"smiles": "CC(NC(=O)C1COCCO1)c1ccc(F)cc1Cl", "note": "(stereo unspecified)", "% Inhibition": -8, "Z score": 1.14},
      {"smiles": "Cc1noc(C)c1C(C)C(=O)N1CCCC1C1CCCN1C", "note": "(stereo unspecified)", "% Inhibition": -2, "Z score": 0.28},
      {"smiles": "O=C1CCN(C(=O)c2ccoc2C2CC2)[C@H](c2ccccc2)C1", "% Inhibition": 4, "Z score": -0.76},
      {"smiles": "Cc1ccc(C[C@@H](CO)NCc2c(C3CC3)nc3sccn23)cc1", "% Inhibition": -3, "Z score": 0.54},
      {"smiles": "COc1cccc(C[C@]2(NC(=O)c3ccccc3)N=C3C(C)=CC=CN3C2=O)c1OC", "% Inhibition": -12, "Z score": 2.33},
      {"smiles": "Cc1c(S(=O)(=O)c2ccc(Cl)cc2)c(N)n(C[C@H]2CCCO2)c1C", "% Inhibition": -8, "Z score": 1.02},
      {"smiles": "CCc1csc(CNC(=O)c2ccc(N3CC[C@H](COC)C3)nc2)n1", "% Inhibition": -4, "Z score": 0.5},
      {"smiles": "Cc1ccc(S(=O)(=O)[C@H](C(=O)N(C)C)C(C)C)cc1C", "% Inhibition": 5, "Z score": -0.83},
      {"smiles": "CCNC(=O)c1ccc(N2CCC3(CC2)CNC(=O)O3)nc1", "% Inhibition": -3, "Z score": 0.5},
      {"smiles": "Cn1cc(C(=O)C(=O)Nc2ccccc2N2CCc3ccccc32)cn1", "% Inhibition": 4, "Z score": -0.71},
      {"smiles": "O=C(c1cc(-c2ccc(O)cc2)nc2ccccc12)N1CCC1", "% Inhibition": -5, "Z score": 0.43},
      {"smiles": "COC1(CNC(=O)c2ccc(O)cc2F)CCC(C)CC1", "note": "(stereo unspecified)", "% Inhibition": -5, "Z score": 0.66},
      {"smiles": "c1cncc(-c2noc([C@@H]3CCCN3Cc3cccs3)n2)c1", "% Inhibition": -13, "Z score": 1.39},
      {"smiles": "CN(CCc1ccccc1F)C[C@H]1CCCN(S(C)(=O)=O)C1", "% Inhibition": 1, "Z score": -0.12},
      {"smiles": "CON(C)C(=O)CNC(=O)c1ccc(F)cc1F", "% Inhibition": -4, "Z score": 0.67},
      {"smiles": "CCN(C)c1nc(-c2cccc(F)c2F)c2c(N)n(-c3ccc(OC)cc3)nc2n1", "% Inhibition": 0, "Z score": 0.03},
      {"smiles": "O=C(NCC[C@H]1CCOC1)c1ccc(C(F)(F)F)[nH]1", "% Inhibition": -6, "Z score": 1.18},
      {"smiles": "COc1ccc(C2CN(C(=O)CC(C)C)CC2C(=O)NCc2ccc(F)cc2)c(OC)c1", "note": "(stereo unspecified)", "% Inhibition": 0, "Z score": 0.03},
      {"smiles": "O=C([C@H]1CCCN(c2cnc3nccnc3c2)C1)N1CCN(C2CCCCC2)CC1", "% Inhibition": -3, "Z score": 0.63},
      {"smiles": "COc1ccccc1-n1nc(C)c(Cc2ccccc2Cl)c1O", "% Inhibition": 2, "Z score": -0.19}
    ]}
  ]
}
